Source: patent US20250197483A1
Positions count from the first letter of the chain named.

B1: VRC07-523LS.v34 (antibody, human IgG1, kappa)
heavy: QVRLSQSGGQMKKPGDSMRISCSASGYEFINCPINWIRLAPGKRPEWMGWMKPRFGAVSYARQLQGRVTMTRQLSQDPDDPDWGTAFLELRSLTSDDTAVYFCTRGSYCTARDYYNWDFEHWGQGTPVTVSS[human IgG1 constant region with changes cut from this listing]
light: LTQSPGTLSLSPGETAIISCETSQYGSLAWYQQRPGQAPRLVIYSGSTRAAGIPDRFSGSRWGPDYNLTISNLESGDFGVYYCQQYEFFGQGTKVQVDIKRTVAAPSVFIFPPSDEQLKSGTASVVCLLNNFYPREAKVQWKVDNALQSGNSQESVTEQDSKDSTYSLSSTLTLSKADYEKHKVYACEVTHQGLSSPVTKSFNRGEC
B2: N6LS.C15 (antibody)
heavy: RAHLVQSGTAMKKPGASVRVSCQTSGYTFTAHILFWFRQAPGRGLEWVGWIKPQYGAVNFGGGFRDRVTLTRQLSQDPDDPDWGIAYMDIRGLKPDDTAVYYCARDRSYGDSSWALDAWGQGTTVVVSA[human IgG1 constant region with changes cut from this listing]
light: YIHVTQSPSSLSVSIGDEVTINCQTSQGVGSDLHWYQHKPGEAPELLIHHTSSVEDGVPSRFSGSGFHTSFNLTISDLQADDIATYYCQVLQFFGRGSRLHIKRTVAAPSVFIFPPSDEQLKSGTASVVCLLNNFYPREAKVQWKVDNALQSGNSQESVTEQDSKDSTYSLSSTLTLSKADYEKHKVYACEVTHQGLSSPVTKSFNRGEC
B3: N6LS.C35 (antibody)
heavy: RAHLVQSGTAMKEPGASVRVSCQTSGYTFTAHILFWFRQAPGRGLEWVGWIKPQYGAVNFGGGFRDRVTLTRQLSQDPDDPDWGIAYMDIRGLKPDDTAVYYCARDRSYGDSSWALDAWGQGTTVVVSA[human IgG1 constant region with changes cut from this listing]
light: B2 light
B4: VRC07-523LS.v11 (antibody, human IgG1, kappa)
heavy: QVRLSQSGGQMKKPGDSMRISCRASGYEFINCPINWIRLAPGKRPEWMGWMKPRFGAVSYARQLQGRVTMTRQLSQDPDDPDWGTAFLELRSLTSDDTAVYFCTRGKYCTARDYYNWDFEHWGQGTPVTVSS[human IgG1 constant region with changes cut from this listing]
light: B1 light with E21D

Tests used:
[1] = biological target: HIV-1 Env of the 208-virus panel (Env-pseudoviruses); test: cell-based or functional assay
[2] = biological target: HIV-1 Env of the 208-virus panel (Env-pseudoviruses); test: cell-based or functional assay; remark: listed apart in the source

Binder | neutralization of Env-pseudoviruses on TZM-bl cells, share of the panel at IC80 less than 1 µg/ml (% of the 208-virus panel) [1] | neutralization of Env-pseudoviruses on TZM-bl cells, share of the panel at IC80<1 µg/ml (% of viruses (208-virus panel)) [2]
B1 | 92 | –
B2 | – | 78
B3 | – | 73
B4 | 92 | –
